Here are results for 89 compounds from paper PMC4336329 (PLoS ONE, 2015).

Screen size: about 310,000 compounds; about 2,200 (0.71%) showed an effect of 50% or more. Effects have a minus sign here. Some of the results follow.

In the experiment the target is human ether-à-go-go-related gene (hERG) potassium channel (human, UniProt Q12809). The experiment is described as follows: primary screen, population patch clamp on CHO cells stably expressing hERG.
Sequence of human ether-à-go-go-related gene (hERG) potassium channel (Q12809 whole entry, looked up): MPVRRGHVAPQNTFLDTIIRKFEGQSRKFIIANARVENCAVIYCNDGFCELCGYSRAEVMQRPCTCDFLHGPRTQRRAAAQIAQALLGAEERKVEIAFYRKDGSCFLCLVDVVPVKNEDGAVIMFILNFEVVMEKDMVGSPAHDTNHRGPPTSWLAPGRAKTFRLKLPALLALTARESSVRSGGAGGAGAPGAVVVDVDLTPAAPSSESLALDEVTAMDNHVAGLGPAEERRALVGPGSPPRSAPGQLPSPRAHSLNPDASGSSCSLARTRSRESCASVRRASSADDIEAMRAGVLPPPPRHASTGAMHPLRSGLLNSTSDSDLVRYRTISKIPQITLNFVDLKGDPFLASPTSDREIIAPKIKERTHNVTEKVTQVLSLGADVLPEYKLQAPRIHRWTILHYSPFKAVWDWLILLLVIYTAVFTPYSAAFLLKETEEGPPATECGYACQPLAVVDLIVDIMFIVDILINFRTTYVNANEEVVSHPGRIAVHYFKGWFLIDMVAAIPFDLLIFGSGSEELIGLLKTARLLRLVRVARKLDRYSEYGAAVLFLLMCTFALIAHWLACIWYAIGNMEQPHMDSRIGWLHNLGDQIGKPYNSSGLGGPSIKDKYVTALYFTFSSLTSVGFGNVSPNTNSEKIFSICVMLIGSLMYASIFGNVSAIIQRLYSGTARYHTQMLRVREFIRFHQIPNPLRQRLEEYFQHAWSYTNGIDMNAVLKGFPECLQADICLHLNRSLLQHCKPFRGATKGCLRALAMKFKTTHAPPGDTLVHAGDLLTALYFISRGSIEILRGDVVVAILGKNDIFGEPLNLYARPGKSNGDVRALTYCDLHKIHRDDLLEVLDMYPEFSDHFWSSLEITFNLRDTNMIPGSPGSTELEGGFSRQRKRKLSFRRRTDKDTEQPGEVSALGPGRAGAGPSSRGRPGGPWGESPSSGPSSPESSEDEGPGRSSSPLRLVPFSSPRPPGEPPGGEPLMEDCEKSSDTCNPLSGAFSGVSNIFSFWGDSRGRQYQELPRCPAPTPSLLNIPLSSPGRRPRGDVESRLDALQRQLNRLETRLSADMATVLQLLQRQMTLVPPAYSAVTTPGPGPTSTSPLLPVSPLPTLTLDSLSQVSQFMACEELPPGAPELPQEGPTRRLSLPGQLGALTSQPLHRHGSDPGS
As for `COc1ccc(NC(=O)NCc2ccco2)c(OC)c1`, the “hERG current change (%, negative = inhibition) at 1uM” value was 4.02%. In the case of `Cc1ccc(CN2C(=O)C(C)Nc3ncnc(N4CCN(c5ccccn5)CC4)c32)cc1.O=C(O)C(F)(F)F` (centres unmarked) it was -14.5%; in that of `CCOC(=O)CC(=O)CSc1nc2c(sc(=S)n2-c2ccc(OCC)cc2)c(=O)[nH]1`, 6.59%. As for `CCN(CC(=O)Nc1ccc2c(c1)OCCO2)CC(=O)Nc1cc(C)on1`, the “hERG current change (%, negative = inhibition) at 1uM” value was 12.2%. Then `CN(C)S(=O)(=O)c1ccc(C(=O)Nc2nnc(-c3ccco3)o2)cc1`, with 7.49%; and `O=[N+]([O-])c1ccc2nc(-c3ccccc3)cc(-c3ccccc3)c2c1`, with 3.23%; and `Fc1ccc(COc2ccccc2C(=S)N2CCCC2)cc1`, with 5.21%. For the compound `COc1ccccc1Cn1c(=S)[nH]c2cc(C(=O)N3CCN(C)CC3)ccc2c1=O`, the “hERG current change (%, negative = inhibition) at 1uM” value is given as -1.36%. Then `COc1ccccc1C(=O)NC(CCSC)C(=O)OC(C)C(=O)NC1CC1` (centres unmarked), with 14.7%; and `COc1ccccc1-n1cc2ccc([N+](=O)[O-])cc2n1`, with 14.2%.

As to `CCC(=O)N(Cc1ccco1)Cc1cc2cccc(C)c2n2nnnc12`, the “hERG current change (%, negative = inhibition) at 1uM” value turned out to be 12%. Turning to `COc1cc2ccccc2cc1C(=O)N1CCN(C(C)=O)CC1`, the “hERG current change (%, negative = inhibition) at 1uM” value is given as 17.9%. As to `CN(CC(=O)Nc1ccc(F)c(F)c1F)C(=O)C1CSC2(C)CCC(=O)N12` (centres unmarked), the “hERG current change (%, negative = inhibition) at 1uM” value was 3.68%. In the case of `COc1ccc(CNc2ccc3c(c2)nc(C)n3C)cc1OC` it was 8.81%; in that of `Cc1ccc(OCC(=O)N/N=C\c2ccc(C)o2)c(C)c1`, 15.7%; in that of `COc1ccc(N2C(=O)CC(Sc3n[nH]c(-c4cccc(C)c4)n3)C2=O)cc1` (centres unmarked), 2.84%. For `CCSc1ccc(C(=O)Nc2ccc(Br)cn2)cc1[N+](=O)[O-]`, the “hERG current change (%, negative = inhibition) at 1uM” value is recorded as 9.04%. Then `Cc1nc2cc(C(=O)N3CCC4(CC3)OCCO4)ccc2n1-c1cccc(F)c1`, with 0.652%; and `CCCC(=O)Nc1cc(C)c(NC(=O)c2ccncc2)cn1`, with -7.02%.

For the compound `COc1ccc(NC(=O)COc2ccccc2C)cc1S(=O)(=O)N1CCCCC1`, the “hERG current change (%, negative = inhibition) at 1uM” value worked out at 7.79%. Take `CCS(=O)(=O)N1CCN(c2c(Cl)cccc2[N+](=O)[O-])CC1`: the “hERG current change (%, negative = inhibition) at 1uM” value is on record as -3.15%. Then `CC(=O)Oc1cccc(C(=O)Nc2ccccc2C(=O)N2CCCC2)c1`, with 25.1%; and `CN(C)S(=O)(=O)c1ccc(C(=O)NNc2nc(-c3ccccc3)c3cc(Br)ccc3n2)cc1`, with 8.18%. In the case of `CCOc1ccc(CNC(=O)c2ccccc2NC(=O)C2=CSCCO2)cc1` it was 1.32%; in that of `CN(C)c1ccc(C(CNC(=O)COc2ccc(Cl)cc2)N2CCCC2)cc1` (centres unmarked), -8.47%. Regarding `CCOC(=O)C(=O)Nc1cc([N+](=O)[O-])ccc1C`, the “hERG current change (%, negative = inhibition) at 1uM” value was determined as 8.03%. Then `Cc1ccc(NC(=O)N2CCCCCC2)c(C)c1`, with 13%; and `COc1cccc(NC(=O)CN2CCCCCC2)c1.Cl`, with 16.3%; and `O=C(c1ccncc1)N(c1ccc2oc3c(c2c1)CCCC3)S(=O)(=O)c1ccc(F)cc1`, with 13.4%.

In the case of `COC(=O)c1c(NC(=O)C2CC2)sc2c1CCCC2`, the “hERG current change (%, negative = inhibition) at 1uM” value stood at 11.6%.

Take `COc1cc(CN/C(C)=C(\C#N)C(N)=O)cc(OC)c1OC`: the “hERG current change (%, negative = inhibition) at 1uM” value came out at 16.8%. For `Cc1ccc(OCCOC(=O)c2nc3nccc(C)n3n2)cc1`, the “hERG current change (%, negative = inhibition) at 1uM” value was 11.2%.

Turning to `C/C(=N\NC(=O)c1cc(C)nc2ccccc12)c1ccncc1`, the “hERG current change (%, negative = inhibition) at 1uM” value is 7.78%.

`CCO[C@@H]1OC(C(=O)NCc2nc3ccccc3[nH]2)=C[C@H](C2CC2)[C@H]1CCCO`: the “hERG current change (%, negative = inhibition) at 1uM” value was 7.06%. In the case of `COC(=O)c1ccc(C2/C(=C(\O)c3ccc4c(c3)OCCO4)C(=O)C(=O)N2CCCN(C)C)cc1` (centres unmarked) it was -5.58%; in that of `O=C(Nc1ccccc1)Nc1ccc2c(c1)CCC2`, 17.6%; in that of `O=C1CN(c2ccc(F)cc2)C(=S)N1c1ccccc1`, 15%. Then `Cc1ccccc1C(=O)NC(CC(C)C)C(=O)Nc1ccc(F)c([N+](=O)[O-])c1` (centres unmarked), with 10%; and `CCSc1n[nH]c(=S)s1`, with 15.7%. Then `COc1ccc(/C=N/NC(=O)/C(=C/c2ccccc2)CCO)cc1`, with 11.7%; and `CCOC(=O)C1SC2(C(F)F)CC1(O)c1c(c(OC)c3occc3c1OC)O2` (centres unmarked), with 12.1%; and `CCCCCC(=O)N/N=C/c1cccs1`, with 16.8%. Take `CN(C)/C=C(/C(=O)c1ccc(Cl)cc1)S(=O)(=O)c1ccc(Cl)cc1`: the “hERG current change (%, negative = inhibition) at 1uM” value is on record as -10.9%. Then `CN1C(=O)CC(N2CCC(c3nc4ccccc4s3)CC2)C1=O` (centres unmarked), with 0.992%. In the case of `COc1ccc(-c2[nH]ncc2/C=N/NC(=O)c2cccc([N+](=O)[O-])c2)cc1OC` it was -25.5%; in that of `O=C1c2ccccc2C(O)(c2ncc[nH]2)N1C1CCCCC1` (centres unmarked), 19.1%; in that of `O=C(O)CC(C(=O)NCc1ccccc1)C1CCCO1` (centres unmarked), -2.32%.

For the compound `NS(=O)(=O)c1ccc(NC(=O)COC(=O)c2cc3ccccc3cc2O)cc1`, the “hERG current change (%, negative = inhibition) at 1uM” value worked out at 16.3%. `CC1CCCCN1C(=O)Cn1cnc2cc([N+](=O)[O-])ccc2c1=O` (centres unmarked): the “hERG current change (%, negative = inhibition) at 1uM” value worked out at 11.1%. Take `Cc1cc([N+](=O)[O-])nn1Cc1ccc(C(=O)N/N=C/c2ccc(O)cc2O)cc1`: the “hERG current change (%, negative = inhibition) at 1uM” value stood at 8.48%.

With `CCCCCC(=O)Nc1cccc(C2=NOC3(C2)C[C@H](C(N)=O)N(C(=O)CCCCC)C3)c1` (some centres unmarked), the “hERG current change (%, negative = inhibition) at 1uM” value is -41.9%.

As for `O=C(/C=C\c1cn(-c2ccccc2)nc1-c1cccs1)N1CCOCC1`, the “hERG current change (%, negative = inhibition) at 1uM” value is 4.61%.

For the compound `Fc1ccccc1/C=N/n1c(COc2ccccc2)n[nH]c1=S`, the “hERG current change (%, negative = inhibition) at 1uM” value is on record as 6.92%. In the case of `COc1ccc(CCNCC(O)COc2cccc(Br)c2)cc1OC` (centres unmarked) it was -39.5%; in that of `CC(=O)N1CCN(c2ccc(NC(=O)c3ccccc3)cc2)CC1`, 4.75%; in that of `COCc1nnc(NC(=O)c2cc(Cl)ccc2OC)s1`, 4.12%. Turning to `CCN(CC)CCn1c(-c2ccc(C)cc2)nc(=S)c2c1CC(C)(C)OC2`, the “hERG current change (%, negative = inhibition) at 1uM” value came to 13.2%. In the case of `O=C1CCCc2c1cc(C(=O)Nc1ccc(Cl)cn1)c(=O)n2-c1ccccc1` it was 2.75%; in that of `CCOC(=O)CCCNC(=O)COC(=O)[C@@H]1CCCN1S(=O)(=O)c1ccc(Cl)cc1`, 13.3%. In the case of `COc1ccc(OC)c(C2=NOC(C(=O)Nc3cc(C)nn3-c3ccccc3)C2)c1` (centres unmarked) it was 11.3%; in that of `CC(=O)N1CCN(c2ccccc2NC(=S)NC(=O)c2cc3ccccc3o2)CC1`, 16.7%; in that of `O=C(C1CCCCC1)N1CCN(C(=O)C2CCCCC2)CC1`, -2.29%. In the case of `CC(=O)n1cc(N(C(=O)CCl)c2ccc(Cl)cc2)c2ccccc21` it was 13.9%; in that of `CCc1ccc(N2CC(C(=O)N3CCCCCC3)CC2=O)cc1` (centres unmarked), 7.72%; in that of `O=C(NCCc1ccccc1)C(=O)Nc1ccc2c(c1)OCCO2`, 17%.

In the case of `Cc1ccc(CC2C(=O)N(c3ccc(F)cc3)C(=O)C2C)cc1` (centres unmarked), the “hERG current change (%, negative = inhibition) at 1uM” value came to 12%. In the case of `Cc1cc(C(=O)NC2CCC(C)CC2)c(C)o1` (centres unmarked), the “hERG current change (%, negative = inhibition) at 1uM” value was 7.39%. In the case of `COc1ccc(Cc2c(O)nc(SCC(C)C)[nH]c2=O)cc1` it was 15.2%; in that of `CC(C)c1ccc(NS(=O)(=O)c2ccc(-n3cccn3)cc2)cc1`, 11.7%; in that of `Fc1ccc(NC(=S)NCCc2ccccc2)c(F)c1F`, 9.26%. Then `CCn1c(C)nc2cc(S(=O)(=O)C(F)(F)F)ccc21`, with 8.5%. In the case of `CCc1ccccc1-n1c(SCC(=O)NC)nnc1-c1ccco1` it was -1.04%; in that of `CCc1cc(=O)oc2c3c(cc(OCC(=O)NCCCCCC(=O)O)c12)OC(C)(C)CC3`, 10.8%; in that of `Cc1cccc(NC(=O)c2cc(NC(=O)c3ccco3)ccc2Cl)n1`, 0.516%. `CCS(=O)(=O)N1Cc2ccccc2CC1C(=O)NCCc1c[nH]c2ccccc12` (centres unmarked): the “hERG current change (%, negative = inhibition) at 1uM” value came out at 11.2%. Then `c1coc(CSSCc2ccco2)c1`, with 12.7%. In the case of `CCC(=O)NCCCCNC(=O)CC` it was 19%; in that of `CN(CCC#N)C(=O)COC(=O)c1nn(-c2ccccc2)c(=O)c2ccccc12`, 16.2%.

As for `Cc1cc(C(F)F)n2ncc(C(=O)NCc3ccc(F)cc3)c2n1`, the “hERG current change (%, negative = inhibition) at 1uM” value stood at 3.64%. Then `COc1cccc(C2=NNC(=NCc3ccccc3)SC2)c1`, with -33.8%; and `O=C(NC1CCCCC1)C(c1ccc(F)cc1)N(C(=O)Cc1ccsc1)c1ccc(F)cc1` (centres unmarked), with 1.07%; and `CCOc1cc(C)c(Cl)cc1S(=O)(=O)NCc1ccc2c(c1)OCO2`, with 3.68%. In the case of `Cc1c(C(=O)N/N=C/c2cccs2)nc2ccccn12` it was 12.4%; in that of `COc1ccc(NC(=O)C2CCC(CNc3c(N4CCC(C)CC4)c(=O)c3=O)CC2)cc1OC` (centres unmarked), 25.4%.

As to `O=C(N/N=C/c1cccs1)c1cc(-c2cccc3ccccc23)n[nH]1`, the “hERG current change (%, negative = inhibition) at 1uM” value was 10%. In the case of `Cc1nn(-c2ccccc2)nc1CNS(C)(=O)=O` it was 7.31%. Then `COc1cc(NC(=O)c2ccc(F)cc2)ccc1NC(=O)c1cc2ccccc2o1`, with 14%; and `CCCNc1sc(S(=O)(=O)CCC)nc1S(=O)(=O)c1ccc(C)cc1`, with 2.89%. For the compound `CCOc1ccc(CNS(=O)(=O)c2cc(-c3cc(C)no3)ccc2OC)cc1OC`, the “hERG current change (%, negative = inhibition) at 1uM” value amounted to 4.24%.
